Reference: patent publication US7132252B2, “Methods for detecting the interaction of compounds with cytochrome P450 using optical molecular sensors” (Invitrogen Corporation, priority 1998, dated 2006)

Tests used:
Format in all cases: biochemical, human
[1] = substrate: O=C(O)c1ccccc1-c1c2ccc(=O)cc-2oc2cc(OCOCc3ccccc3)ccc12; test: Kinetic properties of fluorescein-based fluorogenic substrates with CYP 3A4; conditions: pH 8.0
Experimental: Dibenzylfluorescein (DBF) was purchased form Gentest, Woburn, Mass. […] DBF, BOMF and DBOMF were diluted from a stock solution of 2 mM in acetonitrile to a 4×concentration of 80 μM in 100 mM K+ phosphate buffer. Seven 1:2 dilutions were made of each substrate of which 25 μl was added to the appropriate wells. […] The cytochrome P450 isozyme CYP3A4 was diluted to give a 0.5 pmol enzyme per well and added in a volume of 10 μl/well in K+ phosphate, pH 8.0. Enzymatic conversion of the substrate to products was allowed to proceed for 1 hour with fluorescence reads taken every four minutes on a fluorescence microtiter plate reader. The solution was illuminated using an 485/20 nm excitation filter and fluorescence emission was detected through a 530/25 nm the emission filter.

[2] = substrate: CC1(C)C2=C(Cl)C(=O)C(Cl)=CC2=Nc2ccc(OCOCc3ccccc3)cc21; test: Kinetic properties of fluorogenic substrates with CYP 3A4; conditions: other: ( ) = from Michaelis-Menten fit; — = too low to quantify
Excerpt: (§1) For further understanding these terms in the context of this invention, attention is directed to FIG. 4 and the analysis of FIG. 4.
(§2) (respectively, MFC and MR).

[3] = substrate: Cc1cc(=O)oc2cc(OCOCc3ccccc3)ccc12; test: as above; conditions: other: ( ) = from Michaelis-Menten fit; — = too low to quantify
Excerpt: as §1, §2

[4] = substrate: O=C(OCc1ccccc1)c1c2oc3cc(OCc4ccccc4)ccc3nc-2ccc1=O; test: as above; conditions: other: ( ) = from Michaelis-Menten fit; — = too low to quantify
Excerpt: as §1, §2

[5] = substrate: CCCCCCCCOCOc1ccc2nc3ccc(=O)cc-3oc2c1; test: as above; conditions: other: ( ) = from Michaelis-Menten fit; — = too low to quantify
Excerpt: as §1, §2

[6] = substrate: COCOc1ccc2nc3ccc(=O)cc-3oc2c1; test: as above; conditions: other: ( ) = from Michaelis-Menten fit; — = too low to quantify
Excerpt: as §1, §2

[7] = substrate: CCOCOc1ccc2nc3ccc(=O)cc-3oc2c1; test: as above; conditions: other: ( ) = from Michaelis-Menten fit; — = too low to quantify
Excerpt: as §1, §2

[8] = substrate: COc1ccc(COc2ccc3c(C(F)(F)F)cc(=O)oc3c2)cc1; test: as above; conditions: other: ( ) = from Michaelis-Menten fit; — = too low to quantify
Excerpt: as §1, §2

[9] = substrate: O=c1ccc2nc3ccc(OCc4ccccc4)cc3oc-2c1; test: as above; conditions: other: ( ) = from Michaelis-Menten fit; — = too low to quantify
Excerpt: as §1, §2

[10] = substrate: N#Cc1cc2ccc(OCOCc3ccccc3)cc2oc1=O; test: as above; conditions: other: ( ) = from Michaelis-Menten fit; — = too low to quantify
Excerpt: as §1, §2

[11] = substrate: O=c1ccc2nc3ccc(OCOCc4ccccc4)cc3oc-2c1; test: as above; conditions: other: ( ) = from Michaelis-Menten fit; — = too low to quantify
Excerpt: as §1, §2

[12] = substrate: CCCCCCCCOCOc1ccc2cc(C#N)c(=O)oc2c1; test: as above; conditions: other: ( ) = from Michaelis-Menten fit; — = too low to quantify
Excerpt: as §1, §2

[13] = substrate: O=c1ccc2nc3ccc(OCOCc4ccccc4)cc3oc-2c1; test: Kinetics of BOMR and BR toward CYP 3A4 (FIG. 4); conditions: other: from FIG. 4 data
Excerpt: Whichever of the four abstractable hydrogen atoms (designated H^1 and H^2 in this representation of BOMR) is removed in the initial reaction step, with reference to Reaction Scheme 1 of FIG. 1, the hydroxylation product will spontaneously decompose to the free resorufin dye. In addition, the benzyloxy group, attached to the carbon carrying the two hydrogens designated H^2, contributes an inductive electronic effect on that carbon, which can stabilize the radical formed during abstraction of one of the H^2 hydrogens by a cytochrome P450.
Optimization of assay conditions was, and is preferably, accomplished through statistically validated Design of Experiments methodologies, using the commercial software package “Design-Expert®” produced by Stat-Ease® Inc. The data shown in FIGS. 4 and 5 were obtained with initial optimization.

B1: CYP 3A4 (Homo sapiens) (protein)
chain: MALIPDLAMETWLLLAVSLVLLYLYGTHSHGLFKKLGIPGPTPLPFLGNILSYHKGFCMFDMECHKKYGKVWGFYDGQQPVLAITDPDMIKTVLVKECYSVFTNRRPFGPVGFMKSAISIAEDEEWKRLRSLLSPTFTSGKLKEMVPIIAQYGDVLVRNLRREAETGKPVTLKDVFGAYSMDVITSTSFGVNIDSLNNPQDPFVENTKKLLRFDFLDPFFLSITVFPFLIPILEVLNICVFPREVTNFLRKSVKRMKESRLEDTQKHRVDFLQLMIDSQNSKETESHKALSDLELVAQSIIFIFAGYETTSSVLSFIMYELATHPDVQQKLQEEIDAVLPNKAPPTYDTVLQMEYLDMVVNETLRLFPIAMRLERVCKKDVEINGMFIPKGVVVMIPSYALHRDPKYWTEPEKFLPERFSKKNKDNIDPYIYTPFGSGPRNCIGMRFALMNMKLALIRVLQNFSFKPCKETQIPLKLSLGGLLQPEKPVVLKVESRDGTVSGA
Question: What does the source list for B1?
Answer: Km [1]: 15.0 µM; kcat [1]: 0.15 s⁻¹; kcat/Km [1]: 10000 M⁻¹ s⁻¹; Km [2]: 7 µM; kcat [2]: 0.1 s⁻¹; kcat/Km [2]: 14286 M⁻¹ s⁻¹; Km [3]: 22.0 µM; kcat [3]: 0.0667 s⁻¹; kcat/Km [3]: 3030 M⁻¹ s⁻¹; Km [4]: 2.7 µM; kcat [4]: 0.0138 s⁻¹; kcat/Km [4]: 5123 M⁻¹ s⁻¹; Km [5]: 1.4 µM; kcat [5]: 0.011 s⁻¹; kcat/Km [5]: 7857 M⁻¹ s⁻¹; Km [6]: 6 µM; kcat [6]: 0.001 s⁻¹; kcat/Km [6]: 167 M⁻¹ s⁻¹; Km [7]: 4.5 µM; kcat [7]: 0.00167 s⁻¹; kcat/Km [7]: 489 M⁻¹ s⁻¹; Km [8]: 13 µM; kcat [8]: 0.012 s⁻¹; kcat/Km [8]: 897 M⁻¹ s⁻¹; Km [9]: 5.3 µM; kcat [9]: 0.00167 s⁻¹; kcat/Km [9]: 377 M⁻¹ s⁻¹; Km [10]: (89.0) microM; Km [11]: 1.4 µM; kcat [11]: 0.0183 s⁻¹; kcat/Km [11]: 13100 M⁻¹ s⁻¹; Km [12]: 4.4 µM; kcat [12]: 0.0198 s⁻¹; kcat/Km [12]: 4508 M⁻¹ s⁻¹; Km [13]: 1.9 µM; kcat [13]: 0.5 s⁻¹
